Results on 87 molecules are retold here after PubChem BioAssay AID1645887 (National Center for Advancing Translational Sciences (NCATS), 2021).

SMILES strings stand for the structures. Several values for one entry are separate records, joined by “and”; a condition that tells them apart may be missing. Equal values may be shown once. Hit rate of the full screen: of about 16,000 compounds, about 40 (0.2%) were called active. Roughly 1% stayed inconclusive and do not appear here. Calls follow the shape of the dose curve; as a rule, active = well fitted activation curve with a large enough effect; inconclusive = small, poorly fitted or top-dose-only effect, or another doubt; inactive = no such curve, though single readings can be large or run the other way. The list shows a part of the results.
% is scaled to controls: 0 for no effect and ±100 for the full control effect.

For the assay, the target named is Rap guanine nucleotide exchange factor 4 (Homo sapiens) (UniProt Q8WZA2). As to the kind of experiment: Validation qHTS for agonist of cAMP-regulated guanine nucleotide exchange factor 4 (EPAC2).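 Also: exchange makes BODIPY-GDP fluorescence drop when released from Rap1B; series mostly up to about 150 µM.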 Particulars: EPAC2 Rap1B BODIPY-GDP exchange, fluorescence; activation: hits give high values. In short, it runs like this: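 Fluorescent exchange assay: 100 nM EPAC2 with 250 nM RAP1B-BODIPY-GDP and 50 uM GDP; compound added, 5 min at room temperature, then read (ex 480/em 540 nm) every 5 min for 30 min. Normalized to 6.5 mM cAMP agonist control.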
Chain of UniProt Q8WZA2 (Q8WZA2 whole entry, looked up): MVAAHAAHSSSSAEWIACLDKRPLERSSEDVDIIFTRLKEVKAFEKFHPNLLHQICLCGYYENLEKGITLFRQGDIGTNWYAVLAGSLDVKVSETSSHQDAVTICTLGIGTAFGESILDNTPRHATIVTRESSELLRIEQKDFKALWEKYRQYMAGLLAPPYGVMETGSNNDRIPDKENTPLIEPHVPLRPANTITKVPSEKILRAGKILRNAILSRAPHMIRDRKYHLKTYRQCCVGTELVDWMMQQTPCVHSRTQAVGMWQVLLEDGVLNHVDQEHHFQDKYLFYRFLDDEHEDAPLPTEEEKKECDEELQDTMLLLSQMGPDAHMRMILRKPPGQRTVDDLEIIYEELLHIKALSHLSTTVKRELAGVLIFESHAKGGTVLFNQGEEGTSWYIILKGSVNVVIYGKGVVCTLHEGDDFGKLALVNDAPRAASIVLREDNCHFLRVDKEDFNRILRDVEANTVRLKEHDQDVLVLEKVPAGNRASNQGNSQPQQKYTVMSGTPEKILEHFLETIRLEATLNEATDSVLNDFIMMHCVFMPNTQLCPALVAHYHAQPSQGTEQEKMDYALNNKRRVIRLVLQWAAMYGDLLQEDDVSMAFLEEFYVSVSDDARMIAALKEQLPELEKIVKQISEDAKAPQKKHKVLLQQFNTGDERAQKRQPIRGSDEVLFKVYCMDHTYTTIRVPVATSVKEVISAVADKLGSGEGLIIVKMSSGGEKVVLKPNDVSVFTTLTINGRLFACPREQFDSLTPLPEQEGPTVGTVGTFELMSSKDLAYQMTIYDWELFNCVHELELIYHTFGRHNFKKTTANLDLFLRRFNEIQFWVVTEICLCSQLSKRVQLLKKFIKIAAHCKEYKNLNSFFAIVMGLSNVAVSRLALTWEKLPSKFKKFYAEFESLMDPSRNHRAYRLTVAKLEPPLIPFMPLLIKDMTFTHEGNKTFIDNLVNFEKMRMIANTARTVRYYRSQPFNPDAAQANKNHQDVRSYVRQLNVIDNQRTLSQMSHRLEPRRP
For the molecule `c1cc2c3c(c1)CCCN3CCC2`, the activation was inactive: -18.8%. Regarding `O=P(O)(O)OC(CO)CO`, the activation is inactive: 1.23%. The value for `O=C(c1cccc(F)c1)N1CCC[C@@]2(CCN(c3ccccc3)C2)C1` was inactive: -16.9%; that for `N#Cc1ccc(CN2CCC3(CC2)CCN(C(=O)c2cnccn2)CC3)cc1` was inactive: -2.21%. The value for `CC1=C(/C=C/C(C)=C\C=C\C(C)=C\C(=O)O)C(C)(C)CCC1` was inactive: -5.12% and inactive: -10.8%; that for `CCCN1CCC(=O)N([C@H](CO)CC(C)C)CC1` was inactive: -26.1%. The figure for `CCN1CCCC1CNC(=O)c1cnn(-c2nccc(-c3cccs3)n2)c1C(C)C` (configuration not stated) is inactive: -5.78%; for `Cc1nc(C)c(C(=O)NCc2nc(-c3cccc(NC(=O)c4ccccn4)c3)oc2C)s1` it is inactive: 0.928%. As to `COc1ccc2[nH]cc(CCNc3nc(-c4cccnc4)nc4ccccc34)c2c1`, the activation is inactive: 3.69%.

With `N#Cc1cccc(NC(=O)N2CC[C@@]3(CCCN(C(=O)c4cnccn4)C3)C2)c1`, the activation was inactive: -22.3%.

As to `CCCCOC(=O)CC(CC(=O)OCCCC)(OC(C)=O)C(=O)OCCCC`, the activation was inactive: -26.6%. The value for `O=S(=O)(NCc1ccccc1)[C@@H]1CC2C=CC1C2` (some centres not stated) was inactive: -30%; that for `COc1ncc2nc(-c3cc(F)cc(F)c3)c(=O)n(C[C@H]3CCCO3)c2n1` was inactive: -4.05%. The figure for `CC1CN(CC(=O)N2CCN(Cc3nccn3C)CC2)Cc2cc(Cl)ccc2O1` (configuration not stated) is inactive: 4.35%; for `CC(=O)OCC(=O)[C@@]1(OC(C)=O)[C@@H](C)C[C@H]2[C@@H]3C[C@H](F)C4=CC(=O)C=C[C@]4(C)[C@@]3(F)[C@@H](O)C[C@@]21C` it is inactive: 1.66%. `O=C(C[n+]1cc(Br)cc2ccccc21)c1ccc(Br)cc1`: the activation is inactive: -18%. The value for `O=C(NCCN1CCCCC1)c1ccc(I)cc1` was inactive: 2.44% and inactive: 3.63%; that for `CS(=O)(=O)N1CCC[C@@]2(CCN(C(=O)Nc3cccc(C#N)c3)C2)C1` was inactive: -4.8%; that for `C[n+]1ccc(/C=C/c2ccc3ccccc3c2)cc1` was inactive: 2.09%. The figure for `COc1cc(OC)c(OC)cc1CN1CCOc2ccc(CN3CCN(C(C)=O)CC3)cc2C1` is inactive: -18.7%; for `CCC(Cc1c(I)cc(I)c(O)c1I)C(=O)O` (configuration not stated) it is inactive: -7.22%; for `CCn1c2ccccc2c2cc(CN3CCOc4ccc(C(O)c5cccnc5)cc4C3)ccc21` (configuration not stated) it is inactive: -13.2%. As for `CC1(C)Oc2ccc3ccc(=O)oc3c2CC1O` (configuration not stated), the activation is inactive: -16.1%.

Take `CC[C@@H](CO)NCCN[C@@H](CC)CO`: the activation was inactive: -2.14%. As to `CCCCCCCCCCCCCC(=O)O[C@H](CC(=O)O)C[N+](C)(C)C`, the activation was inactive: -39.3%. For the molecule `O=c1cc(-c2ccccc2)oc2c1ccc1ccccc12`, the activation is inactive: 4.88%.

On to `CC(C)CCCC(C)C1CCC2C3CC=C4CC(=O)CC[C@@]4(C)C3CC[C@@]12C` (some centres not stated), for which the activation is inactive: -16.9%. The figure for `CC(CN(C)C)C(C)(O)Cc1ccc(Cl)cc1` (configuration not stated) is inactive: -17.4%.

Regarding `CCCN1CCC(=O)N([C@H](COc2ccccc2)c2ccccc2)CC1`, the activation is inactive: -26.9%. Take `Cn1cc(-c2nc3cnc(Oc4ccccc4)nc3n(C)c2=O)c2ccccc21`: the activation was inactive: -6.11%. The value for `C[C@]1(Cn2ccnn2)[C@H](C(=O)O)N2C(=O)C[C@H]2S1(=O)=O` was inactive: 10.3%.

Regarding `CN(C)C/C=C(\c1ccc(Br)cc1)c1cccnc1`, the activation was inactive: -9.15%. The value for `Cc1ccccc1-c1ccc(CN2CCc3nnc(CNC(=O)c4ccccn4)n3CC2)cc1` was inactive: -18%; that for `CN(C)C(=O)CNC(=O)Cc1ccccc1` was inactive: 8.69%. The value for `CN1c2ccccc2-c2ccccc2S1(=O)=O` was inactive: -12.6%; that for `COc1cccc(Cn2c(=O)cnc3cnc(Oc4cccc(Cl)c4)nc32)c1` was inactive: 7.98%.

Turning to `COC(=O)C1CCCCN1Cc1ccc2c(c1)CN(Cc1cn[nH]c1-c1ccc(F)cc1)CCO2` (configuration not stated), the activation was inactive: -0.549%. As for `CCCN(CCc1ccccc1)C1CCc2c(O)cccc2C1` (configuration not stated), the activation is inactive: 2.51% and inactive: -18.6%. The value for `CNc1ccnc(-c2ccccc2C(F)(F)F)n1` was inactive: -9.95%; that for `N.N.N.N.N.N.N.N.N.N.N.N.N.N.O.O.[Ru+4].[Ru+5].[Ru+5]` was inactive: -65.5%. The figure for `CC1=CC(=O)CC(C)(C)C1(O)/C=C/C(C)=C\C(=O)O` (configuration not stated) is inactive: -26.9% and inactive: -2.51%; for `O=C(Nc1cccc(F)c1)N1CCC2(CCNCC2)CC1` it is inactive: -17.6%. As for `c1ccc(C(c2ccccc2)N2CC3(CCNCC3)C2)cc1`, the activation was inactive: -10.3%. In the case of `O=C(c1ccncc1)N1CCC2(CC1)CN(c1ccncc1)C2`, the activation was inactive: -1.2%.

As for `CN1CC[C@@]2(CCCN(C(=O)c3cccc(F)c3)C2)C1`, the activation was inactive: -13.9%. The value for `COc1cccc(Nc2ncc3nc(-c4cn(C)c5ccccc45)c(=O)n(C[C@H]4CCCO4)c3n2)c1` was inactive: -15.4%; that for `O=c1c(-c2cc(F)cc(F)c2)nc2cncnc2n1Cc1ccc(F)cc1` was inactive: -5.37%. Turning to `O=C(O)C[C@H]1c2cc(F)ccc2S(=O)(=O)N1Cc1ccccc1`, the activation is inactive: 0.235%. Regarding `Cc1cc(O)c2c(O)c3c(O)cccc3cc2c1`, the activation is inactive: -14%. The value for `C=CCSCC1Nc2cc(Cl)c(S(N)(=O)=O)cc2S(=O)(=O)N1` (configuration not stated) was inactive: -20%; that for `CN1CC[C@@]2(CCCN(C(=O)c3cc(C(F)(F)F)cc(C(F)(F)F)c3)C2)C1` was inactive: 11.2%. The figure for `COCCNc1nc(-c2ccc(N(C)C)cc2)nc2ccccc12` is inactive: -6.53%; for `COc1ccccc1CCn1c(=O)c(-c2ccc(Cl)cc2)nc2cncnc21` it is inactive: 1.92%. Turning to `COc1ccc(CN2CCOc3ccc(CN4CCC(Oc5cccnc5)CC4)cc3C2)cc1`, the activation was inactive: -25.6%. The figure for `COc1ccccc1C(=O)N[C@@H]1c2ccccc2C2(CCN(Cc3nc(C(C)C)cs3)CC2)[C@H]1O` is inactive: -11.4%; for `Cc1noc(C)c1-c1cc(NCCN2CCOCC2)ncn1` it is inactive: -3.47%; for `COc1ccc(CN2CCOc3c(O)cc(-c4cc(C)c5ccc(F)cc5n4)cc3C2)c(O)c1` it is inactive: -16%.

For `Cc1ccc(-n2nc(C(C)(C)C)cc2NC(=O)Nc2ccc(OCCN3CCOCC3)c3ccccc23)cc1`, the activation is inactive: 2.91%. On to `O=c1c(-c2ccc(O[C@@H]3O[C@H](CO)[C@@H](O)[C@H](O)[C@H]3O)cc2)coc2cc(O)cc(O)c12`, for which the activation is inactive: -2.38%. The figure for `COC(=O)C1N2C(=O)N(C)[C@H](C(=O)OC)[C@H]2SC1(C)C` (some centres not stated) is inactive: -11.8%; for `NC(=O)c1cccc(N)c1` it is inactive: -22.6% and inactive: 11.6% and inactive: -11.6%. On to `COCC(=O)N1CCC2(CCCN(C(=O)Nc3ccccc3)C2)CC1`, for which the activation was inactive: -27.3%. For the molecule `O=C(c1cscn1)N1CCOc2ccc(CN3CCC(Oc4cccnc4)CC3)cc2C1`, the activation is inactive: 0.273%.

As for `CCCCC[C@H](O)/C=C/C=C\CCCCCCCC(=O)O`, the activation is inactive: -6.11% and inactive: -2.21%.

`COc1cc(=O)n2c(c1C(=O)N(C)Cc1nonc1C)CCN(C(=O)c1cc(C)ccc1C)CC2`: the activation is inactive: -16.8%. The value for `CC(=O)N1CCC2(CC1)CCN(C(c1ccccc1)c1ccccc1)CC2` was inactive: -17.6%; that for `COc1ccccc1N1CCN(CCCC(=O)c2ccc(F)cc2)CC1` was inactive: -6.44%; that for `NC(=O)NS(=O)(=O)c1ccc(N)cc1` was inactive: -6.9%. Turning to `CN(C)CCc1cc2c(c3c1ccc1ccccc13)OCO2`, the activation is inactive: -8.33%.

Turning to `COc1ccccc1CN1CCC2(CC1)CCN(C(=O)c1cccc(F)c1)CC2`, the activation is inactive: -2.95%. The figure for `O=C(O)CCCC[C@@H]1SC[C@H]2NC(=O)N[C@@H]12` is inactive: -10%; for `Cc1cc(C(=O)NCC2CCC3(CCN(Cc4ccc(F)cc4)CC3)O2)n(C)n1` (configuration not stated) it is inactive: -12.7%. Consider `CCC(CN)CC(C)CCNCC(O)CNCC(C)CC(CC)CN` (configuration not stated), for which the activation was inactive: -7.55%.

For the molecule `O=C(c1cn(C2CCCN(Cc3cccc(Oc4ccccc4)c3)C2)nn1)N1CCCC1` (configuration not stated), the activation is inactive: -7.14%. Consider `Cc1noc(C)c1-c1ccc2ncnc(Nc3ccc(F)cc3)c2c1`, for which the activation was inactive: -13.1%.

Turning to `CC(C(=O)O)c1ccc(C(=O)c2ccccc2)s1` (configuration not stated), the activation is inactive: 2.51%. The figure for `O=C1CCN(Cc2ccc(-c3ccccc3)cc2)CCN1Cc1ccccn1` is inactive: -2.36%; for `NC(CSCSCC(N)C(=O)O)C(=O)O` (configuration not stated) it is inactive: -5.55%; for `Cc1cc(C(=O)Nc2ccccc2-c2nc(CNC(=O)c3cscn3)c(C)o2)c(C)o1` it is inactive: -11.3%.

`CN(C)c1nc(-c2ccoc2)nc2ccccc12`: the activation was inactive: -6.98%. The figure for `Cc1ccccc1-c1nccc(NCCN2CCOCC2)n1` is inactive: -29.4%. `CS(=O)(=O)OCC(O)C(O)COS(C)(=O)=O` (configuration not stated): the activation was inactive: -1.39%.

On to `O=C(C[n+]1cccc2cc(Cl)ccc21)c1ccc(Br)cc1`, for which the activation is inactive: -5.01%. `O=C(c1cccc(F)c1)N1CCC2(CC1)CCN(c1ncccn1)CC2`: the activation was inactive: -7.49%. The value for `CC(N)CCCP(=O)(O)O` (configuration not stated) was inactive: 9.02%. On to `CC(=O)N(CC(O)CN(C(C)=O)c1c(I)c(C(=O)NCC(O)CO)c(I)c(C(=O)NCC(O)CO)c1I)c1c(I)c(C(=O)NCC(O)CO)c(I)c(C(=O)NCC(O)CO)c1I` (configuration not stated), for which the activation was inactive: -25.3%. Regarding `CO[C@H]1C[C@@H]2CC[C@@H](C)[C@@](O)(O2)C(=O)C(=O)N2CCCC[C@H]2C(=O)OC([C@H](C)C[C@@H]2CC[C@@H](O)[C@H](OC)C2)CC(=O)[C@H](C)/C=C(\C)[C@@H](O)[C@@H](OC)C(=O)[C@H](C)C[C@H](C)/C=C/C=C/C=C/1C` (some centres not stated), the activation is inactive: -26.4%.
